Results on 31 molecules are retold here after article PMC9911399, “Two distinct binding modes provide the RNA-binding protein RbFox with extraordinary sequence specificity”.

Numbering of substitutions follows the chain as printed; changes in the protein carry UniProt numbers. This is one part of the list.

Sequences and labels used below:
T1: RBFOX1 RRM RbFoxmut (Fox-RRM*) (Homo sapiens, UniProt Q9NWB1 109-208, R118D;E147R;N151S;E152T)
T1 sequence: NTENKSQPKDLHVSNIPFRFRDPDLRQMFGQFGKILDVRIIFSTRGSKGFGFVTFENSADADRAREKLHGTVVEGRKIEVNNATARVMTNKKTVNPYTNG

B1: UAGAGAA (DNA:RNA)
RNA: GGGAGACCGGAAUUCAGAUUGUCCUAGAGAAUUAAAUCCCGUCGUAGCCACCA
DNA 1: CAATCTGAATTCCGGTCTCCC
DNA 2: TGGTGGCTACGACGGGATT
B2: UCAUGUG (DNA:RNA)
RNA: B1 RNA with A26C, G27A, A28U, A30U, A31G
DNA 1: CAATCTGAATTCCGGTCTCCC
DNA 2: TGGTGGCTACGACGGGATT
B3: GGGCUGA (DNA:RNA)
RNA: B1 RNA with U25G, A26G, A28C, G29U, A30G
DNA 1: CAATCTGAATTCCGGTCTCCC
DNA 2: TGGTGGCTACGACGGGATT
B4: UGCAAGU (DNA:RNA)
RNA: B1 RNA with A26G, G27C, G29A, A30G, A31U
DNA 1: CAATCTGAATTCCGGTCTCCC
DNA 2: TGGTGGCTACGACGGGATT
B5: AGGCGCU (DNA:RNA)
RNA: B1 RNA with U25A, A26G, A28C, A30C, A31U
DNA 1: CAATCTGAATTCCGGTCTCCC
DNA 2: TGGTGGCTACGACGGGATT
B6: CAAUCUA (DNA:RNA)
RNA: B1 RNA with U25C, G27A, A28U, G29C, A30U
DNA 1: CAATCTGAATTCCGGTCTCCC
DNA 2: TGGTGGCTACGACGGGATT
B7: UGCGGAA (DNA:RNA)
RNA: B1 RNA with A26G, G27C, A28G
DNA 1: CAATCTGAATTCCGGTCTCCC
DNA 2: TGGTGGCTACGACGGGATT
B8: AGGAAAC (DNA:RNA)
RNA: B1 RNA with U25A, A26G, G29A, A31C
DNA 1: CAATCTGAATTCCGGTCTCCC
DNA 2: TGGTGGCTACGACGGGATT
B9: CCCUCUA (DNA:RNA)
RNA: B1 RNA with U25C, A26C, G27C, A28U, G29C, A30U
DNA 1: CAATCTGAATTCCGGTCTCCC
DNA 2: TGGTGGCTACGACGGGATT
B10: CUGUGCC (DNA:RNA)
RNA: B1 RNA with U25C, A26U, A28U, A30C, A31C
DNA 1: CAATCTGAATTCCGGTCTCCC
DNA 2: TGGTGGCTACGACGGGATT
B11: AAUGAAG (DNA:RNA)
RNA: B1 RNA with U25A, G27U, A28G, G29A, A31G
DNA 1: CAATCTGAATTCCGGTCTCCC
DNA 2: TGGTGGCTACGACGGGATT
B12: CCAUAAU (DNA:RNA)
RNA: B1 RNA with U25C, A26C, G27A, A28U, G29A, A31U
DNA 1: CAATCTGAATTCCGGTCTCCC
DNA 2: TGGTGGCTACGACGGGATT
B13: CCGACAA (DNA:RNA)
RNA: B1 RNA with U25C, A26C, G29C
DNA 1: CAATCTGAATTCCGGTCTCCC
DNA 2: TGGTGGCTACGACGGGATT
B14: CGAUUUC (DNA:RNA)
RNA: GGGAGACCGGAAUUCAGAUUGUCCCGAUUUCUUAAAUCCCGUCGUAGCCACCA
DNA 1: CAATCTGAATTCCGGTCTCCC
DNA 2: TGGTGGCTACGACGGGATT
B15: CGUGUGG (DNA:RNA)
RNA: B14 RNA with A27U, U28G, U30G, C31G
DNA 1: CAATCTGAATTCCGGTCTCCC
DNA 2: TGGTGGCTACGACGGGATT
B16: UGGGGUC (DNA:RNA)
RNA: B14 RNA with C25U, A27G, U28G, U29G
DNA 1: CAATCTGAATTCCGGTCTCCC
DNA 2: TGGTGGCTACGACGGGATT
B17: CAUCAUC (DNA:RNA)
RNA: B14 RNA with G26A, A27U, U28C, U29A
DNA 1: CAATCTGAATTCCGGTCTCCC
DNA 2: TGGTGGCTACGACGGGATT
B18: UAGAACG (DNA:RNA)
RNA: B1 RNA with G29A, A30C, A31G
DNA 1: CAATCTGAATTCCGGTCTCCC
DNA 2: TGGTGGCTACGACGGGATT
B19: AGCUCCC (DNA:RNA)
RNA: B14 RNA with C25A, A27C, U29C, U30C
DNA 1: CAATCTGAATTCCGGTCTCCC
DNA 2: TGGTGGCTACGACGGGATT
B20: CGGUCGC (DNA:RNA)
RNA: B14 RNA with A27G, U29C, U30G
DNA 1: CAATCTGAATTCCGGTCTCCC
DNA 2: TGGTGGCTACGACGGGATT
B21: CUUAUCC (DNA:RNA)
RNA: B14 RNA with G26U, A27U, U28A, U30C
DNA 1: CAATCTGAATTCCGGTCTCCC
DNA 2: TGGTGGCTACGACGGGATT
B22: AACCACG (DNA:RNA)
RNA: B1 RNA with U25A, G27C, A28C, G29A, A30C, A31G
DNA 1: CAATCTGAATTCCGGTCTCCC
DNA 2: TGGTGGCTACGACGGGATT
B23: CCCCCGG (DNA:RNA)
RNA: B14 RNA with G26C, A27C, U28C, U29C, U30G, C31G
DNA 1: CAATCTGAATTCCGGTCTCCC
DNA 2: TGGTGGCTACGACGGGATT
B24: AGCCCCA (DNA:RNA)
RNA: B14 RNA with C25A, A27C, U28C, U29C, U30C, C31A
DNA 1: CAATCTGAATTCCGGTCTCCC
DNA 2: TGGTGGCTACGACGGGATT
B25: UUCGCGC (DNA:RNA)
RNA: B14 RNA with C25U, G26U, A27C, U28G, U29C, U30G
DNA 1: CAATCTGAATTCCGGTCTCCC
DNA 2: TGGTGGCTACGACGGGATT
B26: AGAUAUU (DNA:RNA)
RNA: B14 RNA with C25A, U29A, C31U
DNA 1: CAATCTGAATTCCGGTCTCCC
DNA 2: TGGTGGCTACGACGGGATT
B27: CAUGUCA (DNA:RNA)
RNA: B14 RNA with G26A, A27U, U28G, U30C, C31A
DNA 1: CAATCTGAATTCCGGTCTCCC
DNA 2: TGGTGGCTACGACGGGATT
B28: ACAUCUG (DNA:RNA)
RNA: B14 RNA with C25A, G26C, U29C, C31G
DNA 1: CAATCTGAATTCCGGTCTCCC
DNA 2: TGGTGGCTACGACGGGATT
B29: CGUGAAG (DNA:RNA)
RNA: B14 RNA with A27U, U28G, U29A, U30A, C31G
DNA 1: CAATCTGAATTCCGGTCTCCC
DNA 2: TGGTGGCTACGACGGGATT
B30: CCGCACG (DNA:RNA)
RNA: B14 RNA with G26C, A27G, U28C, U29A, U30C, C31G
DNA 1: CAATCTGAATTCCGGTCTCCC
DNA 2: TGGTGGCTACGACGGGATT
B31: AUCUCAU (DNA:RNA)
RNA: B14 RNA with C25A, G26U, A27C, U29C, U30A, C31U
DNA 1: CAATCTGAATTCCGGTCTCCC
DNA 2: TGGTGGCTACGACGGGATT

This assay deals with T1, RBFOX1 RRM RbFoxmut (Fox-RRM*). As to the kind of experiment: EMSA; HiTS-Eq, 1 nM pool, 10 min; buffer printed only for the single-RNA assays: 10 mM Tris pH 7.5, 150 mM NaCl, 3.4 mM EDTA, 0.001% NP-40, 30 C. To be noted: tags: His6 N-terminal (pET28a); label: 5' 32P. Summed up:
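Purified RbFox RRM, wild type or mutant, was incubated for 10 min in 50 µL with 1 nM of a 5′-radiolabelled RNA pool carrying 7 randomized nucleotides, whose flanks were annealed to DNA oligonucleotides, over a series of increasing protein concentrations. Unbound RNA was resolved on 8% native PAGE, cut out, reverse-transcribed, barcoded by PCR and sequenced on an Illumina HiSeq 2500. Relative association constants were derived from changes in read counts for each RNA species versus the control reaction and normalised to the cognate motif.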
In general terms: A gel shift assay detects complexes by their altered migration in electrophoresis.
As for B1, the binding signal was 0.0734 KA relative to UGCAUGU. Consider B2, for which the binding signal was 0.149 KA relative to UGCAUGU. Then B3, with 0.222 KA relative to UGCAUGU. On to B4, for which the binding signal was 0.103 KA relative to UGCAUGU. Turning to B5, the binding signal was 0.0903 KA relative to UGCAUGU. Then B6, with 0.0632 KA relative to UGCAUGU; and B7, with 0.143 KA relative to UGCAUGU; and B8, with 0.0743 KA relative to UGCAUGU. For B9, the binding signal was 0.0877 KA relative to UGCAUGU. For B10, the binding signal is 0.251 KA relative to UGCAUGU. Then B11, with 0.116 KA relative to UGCAUGU; and B12, with 0.0793 KA relative to UGCAUGU. Then B13, with 0.058 KA relative to UGCAUGU; and B14, with 0.0719 KA relative to UGCAUGU; and B15, with 0.0868 KA relative to UGCAUGU. For B16 the value was 0.209 KA relative to UGCAUGU; for B17, 0.0619 KA relative to UGCAUGU; for B18, 0.181 KA relative to UGCAUGU. For B19, the binding signal is 0.0327 KA relative to UGCAUGU.

Regarding B20, the binding signal is 0.0578 KA relative to UGCAUGU.

In the case of B21, the binding signal was 0.0826 KA relative to UGCAUGU. Then B22, with 0.11 KA relative to UGCAUGU; and B23, with 0.0914 KA relative to UGCAUGU; and B24, with 0.0512 KA relative to UGCAUGU. As to B25, the binding signal was 0.0915 KA relative to UGCAUGU. Consider B26, for which the binding signal was 0.12 KA relative to UGCAUGU. As for B27, the binding signal is 0.0975 KA relative to UGCAUGU. Then B28, with 0.0535 KA relative to UGCAUGU; and B29, with 0.119 KA relative to UGCAUGU; and B30, with 0.236 KA relative to UGCAUGU. On to B31, for which the binding signal is 0.0985 KA relative to UGCAUGU.
